The whole screen tested about 50,000 compounds, of which about 800 (1.6%) showed an effect of 50% or more. The list shows a part of the results.

In this test the target is Bcl-2-like protein 10 (Homo sapiens) (UniProt Q9HD36). Briefly: Phenotype converters, Bcl-B/TR3 peptide binding displacement, primary biochemical FP (AID 1240).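 Also: 0% = Bcl-B with tracer peptide and DMSO and 100% = tracer peptide lacking Bcl-B.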 The settings on record: GST-Bcl-B / FITC-TR3 peptide fluorescence polarization; stronger effect = higher value; compound at 3.75 mg/L. In general terms: In fluorescence polarisation assays a small probe gives low polarisation when free and higher when bound to something large.
UniProt Q9HD36, sequence (Q9HD36 whole entry, looked up): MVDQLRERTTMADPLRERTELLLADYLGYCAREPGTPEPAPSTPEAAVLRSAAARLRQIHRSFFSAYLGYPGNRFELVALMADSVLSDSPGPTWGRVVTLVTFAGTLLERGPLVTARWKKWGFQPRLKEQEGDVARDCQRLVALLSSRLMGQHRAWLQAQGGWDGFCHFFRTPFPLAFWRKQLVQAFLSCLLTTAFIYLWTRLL
On to `O=C(NCCOc1ccccc1F)c1cccs1`, for which the displacement is -12.9%. The figure for `Cc1cccc(N2C(=O)S/C(=C/c3ccc(N(C)C)cc3)C2=O)c1` is 95.7%; for `COC(=O)c1cc(NC(=O)COc2ccccc2C)cc(C(=O)OC)c1` it is -2.3%; for `CC(=O)/C=C/c1ccc(-c2cc(Cl)ccc2Cl)o1` it is -19.8%. The figure for `COC(=O)C1C(O)=C(C=Nc2ccccc2C)C(=O)CC1(C)C` (centres undefined) is 3.7%; for `COc1ccc(-c2ccc(/C=C/c3cc(C(F)(F)F)[nH]c(=O)n3)o2)cc1Cl` it is 7.9%. The figure for `O=C1c2ccccc2C(=O)C1(c1ccccc1)[N+](=O)[O-]` is 16.4%.

On to `Cc1cc(=O)[nH]c(N/N=C/c2cccnc2)n1`, for which the displacement is -12%. `CC(C)N(Cc1c(O)ccc2c(=O)c(-c3ccccc3)coc12)C(C)C`: the displacement is -12.7%. Consider `Cc1ccc2nc(-c3ccc([N+](=O)[O-])cc3)cn2c1`, for which the displacement came out at 15.4%. The value for `Cc1cccc(C)c1NC(=O)CSCc1c(Cl)cccc1Cl` was -4.9%.

`CSCCC(NC(=O)/C(=C\c1ccco1)NC(=O)c1ccco1)C(=O)O` (centres undefined): the displacement is -0.3%. For the compound `CCOc1ccccc1NC(=O)CN(c1ccc(C)cc1)S(=O)(=O)c1ccc(SC)cc1`, the displacement came out at 3.9%. The value for `Cc1ccccc1OCCCCCn1ccnc1` was -6.6%.

`O=C(CCc1n[nH]c(=O)[nH]c1=O)N/N=C/c1ccc(C(F)(F)F)cc1`: the displacement amounted to 0.8%. `CCOC(=O)c1c(NC(=O)c2ccc(Cl)cc2Cl)sc(C(=O)Nc2ccccc2C)c1C`: the displacement worked out at 1.3%. For `CCCOC(=O)c1c(-c2ccc(OCC)cc2)csc1N`, the displacement was -4.5%. The figure for `COC(=O)c1ccccc1NC(=O)CN(c1ccc(OC)cc1OC)S(C)(=O)=O` is -7%. The figure for `COc1cc(C2NC(=O)NC(C)=C2C(=O)OCc2ccc3c(c2)OCO3)cc(OC)c1OC` (centres undefined) is 6.6%. The value for `CC(NC(=O)CN1CCN(C)CC1)C1CC2CCC1C2` (centres undefined) was -7.4%. `O=C(NN1C(=O)CSC1c1ccc(Br)cc1)c1ccccc1` (centres undefined): the displacement was found to be 11.1%. The value for `Cc1[nH]n(-c2ccc([N+](=O)[O-])cc2)c(=O)c1C=NCCc1c[nH]c2ccccc12` was -5.7%; that for `O=C(CSc1nnnn1-c1ccccc1)Nc1ccccc1[N+](=O)[O-]` was 1.7%; that for `CCOc1ccc(C(=O)Nc2cccc(OC)c2)cc1OCC` was 13.6%. The value for `N#CCNC1CC(=O)N(c2ccc(Br)cc2)C1=O` (centres undefined) was -10.9%; that for `CCOC(=O)c1c(NC(=O)CCC(=O)OC)sc(C)c1C` was 11.7%. The value for `Cc1cc(C)c(S(=O)(=O)Nc2cc(Cl)c3oc4c(c3c2)C(=O)CCC4)c(C)c1` was 3.6%; that for `Cc1ccc(S(=O)(=O)NNC(=O)c2ccncc2)cc1[N+](=O)[O-]` was -17.1%.

Regarding `CCc1c(C)sc(NC(=O)C2CCCCC2C(=O)O)c1C#N` (centres undefined), the displacement is -14.9%.

`COC(=O)c1ccccc1NC(=O)c1cncc(Br)c1`: the displacement was 15.2%. The figure for `Cc1ccc(SCC(=O)Nc2ccccc2)cc1` is 16.1%.

With `COc1ccccc1-n1c(CCN2C(=O)c3ccccc3C2=O)nc2ccccc2c1=O`, the displacement is -0.4%. `CC(=O)NC1C(OCCOc2ccc(Cl)cc2Cl)OC(COC(C)=O)C(OC(C)=O)C1OC(C)=O` (centres undefined): the displacement was determined as 9.1%. The figure for `COc1cccc(-c2csc(-c3cc4cccc(OC)c4oc3=O)n2)c1` is -23.1%. The value for `CCOc1ccccc1NC(=O)C(=O)N/N=C/c1ccc(C)o1` was -13%; that for `CCOc1ccc2nc(SCC(C)=O)sc2c1` was -6.8%. The figure for `COc1ccc(N(CC(=O)NCCc2ccc(OC)c(OC)c2)S(=O)(=O)c2ccccc2)cc1` is -9.6%. With `CCOC(=O)C(NC(=O)CCC(=O)Nc1ccc(S(N)(=O)=O)cc1)C(O)c1ccccc1` (centres undefined), the displacement was 7.9%. On to `CCOC(=O)c1c(OS(=O)(=O)c2ccc(C)cc2)c(C=O)n(C)c1C`, for which the displacement was -9.8%. As for `CCN(CC)c1ccc(C=NN2CCN(Cc3ccccc3)CC2)cc1`, the displacement was -10.8%. The figure for `CC1=NNC(=O)C1CCC(=O)N/N=C/c1c(Cl)cccc1Cl` (centres undefined) is -12.7%. Take `Cc1ccc(S(=O)(=O)Oc2cccc(/C=C3/SC(=S)N(C)C3=O)c2)cc1`: the displacement is -0.6%.

As for `O=C(O)CCCCCN1C(=O)C(=O)/C(=C(/O)c2ccc(Cl)cc2)C1c1ccc(O)cc1` (centres undefined), the displacement was -3.9%. The figure for `O=C(Nc1cccc(NC(=O)c2cccc(Cl)c2)c1)c1ccc([N+](=O)[O-])cc1` is 2.8%; for `CC(C)(C)NCCOc1ccc(Br)cc1` it is -5.7%. In the case of `Cc1cc(C(=O)n2cnc3c(N)ncnc32)co1`, the displacement was found to be 12.2%. The value for `CCOC(=O)c1cnc2c(C)c(-c3ccccc3)[nH]n2c1=O` was 20.2%. Regarding `COc1cccc(-c2nnc(-c3ccc(OC)c(OC)c3)o2)c1`, the displacement was 29.4%. The figure for `O=C(Nc1ccc(I)cc1)C(Cc1ccccc1)N1C(=O)c2ccccc2C1=O` (centres undefined) is 5.4%.

With `COC(=O)c1nn2c(C(F)(F)F)cc(-c3ccccc3)nc2c1Br`, the displacement is -4.8%.

In the case of `Cc1ccc(OCc2nnc(NC(=O)Nc3cccc(Cl)c3)s2)c(C)c1`, the displacement was found to be 4.5%.

As to `CN(C)c1ccc(/C=C/C(=O)c2ccc3c(c2)OCCO3)cc1`, the displacement is -18.8%. The figure for `CC(=O)Oc1ccc(N2C(=O)C3C4C=CC(C4=C(C)C)C3C2=O)cc1` (centres undefined) is -3.2%.

In the case of `COC(=O)C1=C(C)N(Cc2ccco2)C(=O)/C1=C\c1ccc(OC)c([N+](=O)[O-])c1`, the displacement is -14%. In the case of `Cc1cccc(OCC(=O)NCc2ccccn2)c1`, the displacement was -2.7%. In the case of `CCc1cc(/C(O)=C/c2nc3ccccc3n2C)c(O)cc1OC(=O)C(C)(C)C`, the displacement was found to be 12.7%. Turning to `O=C(Nc1ccccc1C(=O)Nc1ccccn1)c1ccco1`, the displacement was found to be 9.8%. With `O=C(CSc1nnnn1-c1ccccc1F)Nc1ccc2c(c1)OCO2`, the displacement is -2.6%. The figure for `O=C(CSc1nnc2c(n1)[nH]c1ccccc12)Nc1ccccc1` is 19.4%; for `CCCOc1cccc(NC(=O)c2cc(C)oc2C)c1` it is 8.3%; for `COCCCNC(=O)/C(=C\C=C\c1ccccc1)NC(=O)c1ccccc1` it is 14.1%. The figure for `Cc1cc(NS(=O)(=O)c2ccc(Nc3nc(-c4ccc(Cl)cc4)cs3)cc2)no1` is -7.7%; for `C(=NN1CCN(c2ccccn2)CC1)c1cccc(OCc2ccccc2)c1` it is -6.7%. Regarding `CC(=O)N1c2ccc3ccccc3c2C2C=CCC2C1c1ccc(F)cc1` (centres undefined), the displacement was determined as 13.5%. As to `O=C(Nc1cc(C(F)(F)F)cc(C(F)(F)F)c1)c1ccc([N+](=O)[O-])o1`, the displacement was -0.8%. `Cc1ccc2[nH]c(=O)c(C(=O)/C=C\c3ccccc3)c(-c3ccccc3)c2c1`: the displacement is -9.8%. Consider `Clc1ccc(/C=N/Nc2nc(N3CCOCC3)nc(N3CCOCC3)n2)cc1`, for which the displacement came to 23.2%.

For `COC(=O)C1=C(C)N=C2SCCC(=O)N2C1c1ccc(C(C)(C)C)cc1` (centres undefined), the displacement came to 12.2%.

`COc1ccc(/C(C)=N/N=C2/NC(=O)C(CC(=O)Nc3cccc([N+](=O)[O-])c3)S2)cc1` (centres undefined): the displacement stood at 12.5%.

The record behind these values is PubChem BioAssay AID1240 (Sanford-Burnham Center for Chemical Genomics, 2008).
